# Article PMC9911399, “Two distinct binding modes provide the RNA-binding protein RbFox with extraordinary sequence specificity”
# Where a chain is given by its changes, count along the chain named. This is one part of the list.
# T1: RBFOX1 RRM RbFoxmut (Fox-RRM*) (Homo sapiens, UniProt Q9NWB1 109-208, R118D;E147R;N151S;E152T)
# T1 sequence: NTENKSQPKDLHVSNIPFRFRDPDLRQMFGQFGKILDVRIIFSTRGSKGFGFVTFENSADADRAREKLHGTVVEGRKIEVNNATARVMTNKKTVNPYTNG
# B1: CGAUGCA (DNA:RNA)
# RNA: GGGAGACCGGAAUUCAGAUUGUCCCGAUGCAUUAAAUCCCGUCGUAGCCACCA
# DNA 1: CAATCTGAATTCCGGTCTCCC
# DNA 2: TGGTGGCTACGACGGGATT
# B2: UGACCAU (DNA:RNA)
# RNA: B1 RNA with C25U, U28C, G29C, C30A, A31U
# DNA 1: CAATCTGAATTCCGGTCTCCC
# DNA 2: TGGTGGCTACGACGGGATT
# B3: UUGGCCC (DNA:RNA)
# RNA: B1 RNA with C25U, G26U, A27G, U28G, G29C, A31C
# DNA 1: CAATCTGAATTCCGGTCTCCC
# DNA 2: TGGTGGCTACGACGGGATT
# B4: UACAUCG (DNA:RNA)
# RNA: B1 RNA with C25U, G26A, A27C, U28A, G29U, A31G
# DNA 1: CAATCTGAATTCCGGTCTCCC
# DNA 2: TGGTGGCTACGACGGGATT
# B5: UAUUGUU (DNA:RNA)
# RNA: B1 RNA with C25U, G26A, A27U, C30U, A31U
# DNA 1: CAATCTGAATTCCGGTCTCCC
# DNA 2: TGGTGGCTACGACGGGATT
# B6: AAUGGCC (DNA:RNA)
# RNA: B1 RNA with C25A, G26A, A27U, U28G, A31C
# DNA 1: CAATCTGAATTCCGGTCTCCC
# DNA 2: TGGTGGCTACGACGGGATT
# B7: GACUGUC (DNA:RNA)
# RNA: B1 RNA with C25G, G26A, A27C, C30U, A31C
# DNA 1: CAATCTGAATTCCGGTCTCCC
# DNA 2: TGGTGGCTACGACGGGATT
# B8: GUUUCGC (DNA:RNA)
# RNA: B1 RNA with C25G, G26U, A27U, G29C, C30G, A31C
# DNA 1: CAATCTGAATTCCGGTCTCCC
# DNA 2: TGGTGGCTACGACGGGATT
# B9: UUGCACG (DNA:RNA)
# RNA: B1 RNA with C25U, G26U, A27G, U28C, G29A, A31G
# DNA 1: CAATCTGAATTCCGGTCTCCC
# DNA 2: TGGTGGCTACGACGGGATT
# B10: GCAGCGC (DNA:RNA)
# RNA: B1 RNA with C25G, G26C, U28G, G29C, C30G, A31C
# DNA 1: CAATCTGAATTCCGGTCTCCC
# DNA 2: TGGTGGCTACGACGGGATT
# B11: CAGUGUA (DNA:RNA)
# RNA: B1 RNA with G26A, A27G, C30U
# DNA 1: CAATCTGAATTCCGGTCTCCC
# DNA 2: TGGTGGCTACGACGGGATT
# B12: AGCCAAA (DNA:RNA)
# RNA: B1 RNA with C25A, A27C, U28C, G29A, C30A
# DNA 1: CAATCTGAATTCCGGTCTCCC
# DNA 2: TGGTGGCTACGACGGGATT
# B13: UGCAUUU (DNA:RNA)
# RNA: B1 RNA with C25U, A27C, U28A, G29U, C30U, A31U
# DNA 1: CAATCTGAATTCCGGTCTCCC
# DNA 2: TGGTGGCTACGACGGGATT
# B14: CAUCAAU (DNA:RNA)
# RNA: B1 RNA with G26A, A27U, U28C, G29A, C30A, A31U
# DNA 1: CAATCTGAATTCCGGTCTCCC
# DNA 2: TGGTGGCTACGACGGGATT
# B15: ACCCACC (DNA:RNA)
# RNA: B1 RNA with C25A, G26C, A27C, U28C, G29A, A31C
# DNA 1: CAATCTGAATTCCGGTCTCCC
# DNA 2: TGGTGGCTACGACGGGATT
# B16: GCCAGAU (DNA:RNA)
# RNA: B1 RNA with C25G, G26C, A27C, U28A, C30A, A31U
# DNA 1: CAATCTGAATTCCGGTCTCCC
# DNA 2: TGGTGGCTACGACGGGATT
# B17: AUGCAGG (DNA:RNA)
# RNA: GGGAGACCGGAAUUCAGAUUGUCCAUGCAGGUUAAAUCCCGUCGUAGCCACCA
# DNA 1: CAATCTGAATTCCGGTCTCCC
# DNA 2: TGGTGGCTACGACGGGATT
# B18: CCCCAAA (DNA:RNA)
# RNA: B17 RNA with A25C, U26C, G27C, G30A, G31A
# DNA 1: CAATCTGAATTCCGGTCTCCC
# DNA 2: TGGTGGCTACGACGGGATT
# B19: GGAGAGG (DNA:RNA)
# RNA: B17 RNA with A25G, U26G, G27A, C28G
# DNA 1: CAATCTGAATTCCGGTCTCCC
# DNA 2: TGGTGGCTACGACGGGATT
# B20: UUUCAAU (DNA:RNA)
# RNA: B17 RNA with A25U, G27U, G30A, G31U
# DNA 1: CAATCTGAATTCCGGTCTCCC
# DNA 2: TGGTGGCTACGACGGGATT
# Biological target: T1, RBFOX1 RRM RbFoxmut (Fox-RRM*)
# Assay: EMSA; HiTS-Eq, 1 nM pool, 10 min; buffer printed only for the single-RNA assays: 10 mM Tris pH 7.5, 150 mM NaCl, 3.4 mM EDTA, 0.001% NP-40, 30 C
# Conditions: tags: His6 N-terminal (pET28a); label: 5' 32P
# How it was run: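 Relative association constants, normalised to the cognate motif, were derived by comparing read counts of each RNA species with those of the control reaction. The RNA sequenced was the free fraction, separated by 8% native PAGE after a 10 min equilibration in 50 µL of 1 nM 5′-radiolabelled RNA (7 randomized nucleotides) with increasing concentrations of purified wild-type or mutant RbFox RRM.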
row,Binder,binding signal
1,B1,0.158 KA relative to UGCAUGU
2,B2,0.0699 KA relative to UGCAUGU
3,B3,0.103 KA relative to UGCAUGU
4,B4,0.0513 KA relative to UGCAUGU
5,B5,0.156 KA relative to UGCAUGU
6,B6,0.19 KA relative to UGCAUGU
7,B7,0.217 KA relative to UGCAUGU
8,B8,0.163 KA relative to UGCAUGU
9,B9,0.612 KA relative to UGCAUGU
10,B10,0.0816 KA relative to UGCAUGU
11,B11,0.246 KA relative to UGCAUGU
12,B12,0.0772 KA relative to UGCAUGU
13,B13,0.137 KA relative to UGCAUGU
14,B14,0.0414 KA relative to UGCAUGU
15,B15,0.0723 KA relative to UGCAUGU
16,B16,0.0881 KA relative to UGCAUGU
17,B17,0.118 KA relative to UGCAUGU
18,B18,0.0725 KA relative to UGCAUGU
19,B19,0.0582 KA relative to UGCAUGU
20,B20,0.0446 KA relative to UGCAUGU
